13 compounds from the supplement of paper PMC4604168 (melanoma cell lines) can be followed below.

The list shows a part of the results. Many values rest on one well or one pass, so single values are uncertain.
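Further: cell number obtained by counting DAPI-stained nuclei in high-throughput microscope images with image analysis software, screen run in 1,536-well plates.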

For this assay, the system named is SkMel2. The assay is described as follows: cell count relative to DMSO control; melanoma cells; higher = more viable cells. The conditions noted are these: library dose: low library concentration; 72 h.
`CC(=O)O[C@@]12CO[C@@H]1C[C@H](O)[C@@]1(C)C(=O)[C@H](O)C3=C(C)[C@@H](OC(=O)[C@H](O)[C@@H](NC(=O)OC(C)(C)C)c4ccccc4)C[C@@](O)([C@@H](OC(=O)c4ccccc4)[C@H]21)C3(C)C` [Docetaxel] + CN(NC(=O)CC(=O)NN(C)C(=S)c1ccccc1)C(=S)c1ccccc1 [STA4783] (first compound 0.0001 µM, partner dose 0.006 µM) displayed a cell count of 41.7%.

Turning to `CC(=O)O[C@@]12CO[C@@H]1C[C@H](O)[C@@]1(C)C(=O)[C@H](O)C3=C(C)[C@@H](OC(=O)[C@H](O)[C@@H](NC(=O)OC(C)(C)C)c4ccccc4)C[C@@](O)([C@@H](OC(=O)c4ccccc4)[C@H]21)C3(C)C` [Docetaxel] + Cc1ccc(NC(=O)c2cccc(N(C)C)c2)cc1NC(=O)c1ccc(O)cc1 [ZM336372] (first compound 0.0001 µM, partner dose 2 µM), the cell count worked out at 54.2%.

Consider `Nc1ncn([C@H]2C[C@H](O)[C@@H](CO)O2)c(=O)n1` [decitabine] + CO[C@@H]1[C@H](N(C)C(=O)c2ccccc2)C[C@H]2O[C@]1(C)n1c3ccccc3c3c4c(c5c6ccccc6n2c5c31)C(=O)NC4 [Midostaurin] (first compound 0.1 µM, partner dose 0.08 µM), for which the cell count worked out at 80.9%.

`Nc1ccn([C@@H]2O[C@H](CO)[C@@H](O)C2(F)F)c(=O)n1` [gemcitabine] + CCc1ccc(CCOc2ccc(CC3SC(=O)NC3=O)cc2)nc1 [pioglitazone] (first compound 0.0004 µM, partner dose 2 µM) came in with a cell count of 99.8%.

`CC(=O)c1c(C)c2cnc(Nc3ccc(N4CCNCC4)cn3)nc2n(C2CCCC2)c1=O` [palbociclib] + C=CCn1c(=O)c2cnc(Nc3ccc(N4CCN(C)CC4)cc3)nc2n1-c1cccc(C(C)(C)O)n1 [MK1775] (first compound 0.04 µM, partner dose 0.02 µM) had a cell count of 69.4%.

For `CC(=O)c1c(C)c2cnc(Nc3ccc(N4CCNCC4)cn3)nc2n(C2CCCC2)c1=O` [palbociclib] + Oc1cc(-c2nc(-c3ccccc3)[nH]c2-c2ccncc2)ccc1Cl [L779450] (first compound 0.04 µM, partner dose 0.2 µM), the cell count is 78.9%.

With `Nc1ncn([C@H]2C[C@H](O)[C@@H](CO)O2)c(=O)n1` [decitabine] + c1cc(-c2cnn3cc(-c4ccc(OCCN5CCCCC5)cc4)cnc23)ccn1 [Dorsomorphin] (first compound 0.1 µM, partner dose 0.4 µM), the cell count was 114%.

For the compound `Nc1ncn([C@H]2C[C@H](O)[C@@H](CO)O2)c(=O)n1` [decitabine] + O=C(Nc1ccccc1)c1cc([N+](=O)[O-])ccc1Cl [GW9662] (first compound 0.1 µM, partner dose 2 µM), the cell count amounted to 109%.

`Nc1ncn([C@H]2C[C@H](O)[C@@H](CO)O2)c(=O)n1` [decitabine] + O=C(Nc1cccc(Cl)c1)Nc1ncc(CCNc2ncnc3ccsc23)s1 [SNS314] (first compound 0.1 µM, partner dose 0.0008 µM) yielded a cell count of 95.4%.

For the compound `CC(=O)O[C@@]12CO[C@@H]1C[C@H](O)[C@@]1(C)C(=O)[C@H](O)C3=C(C)[C@@H](OC(=O)[C@H](O)[C@@H](NC(=O)OC(C)(C)C)c4ccccc4)C[C@@](O)([C@@H](OC(=O)c4ccccc4)[C@H]21)C3(C)C` [Docetaxel] + Cn1cncc1[C@@](N)(c1ccc(Cl)cc1)c1ccc2c(c1)c(-c1cccc(Cl)c1)cc(=O)n2C [tipifarnib] (first compound 0.0001 µM, partner dose 0.01 µM), the cell count came to 39.1%.

`Nc1nc(F)nc2c1ncn2[C@@H]1O[C@H](CO)[C@@H](O)[C@@H]1O` [fludarabine] + CC1(C)NC(=O)N(c2ccc([N+](=O)[O-])c(C(F)(F)F)c2)C1=O [nilutamide] (first compound 0.2 µM, partner dose 1 µM): the cell count turned out to be 8.3%.

With `Nc1ncn([C@H]2C[C@H](O)[C@@H](CO)O2)c(=O)n1` [decitabine] + O=C(CCCCCCC(=O)Nc1ccccc1)NO [vorinostat] (first compound 0.1 µM, partner dose 0.08 µM), the cell count is 94.2%.

`CC(=O)c1c(C)c2cnc(Nc3ccc(N4CCNCC4)cn3)nc2n(C2CCCC2)c1=O` [palbociclib] + COc1ccc(-c2ccc3c(N4CCOCC4)nc(N4C[C@@H](C)O[C@@H](C)C4)nc3n2)cc1CO [KU0063794] (first compound 0.04 µM, partner dose 0.02 µM): the cell count stood at 83.2%.
